Whole data set: some 16,000 sequences, median “Z-score” near -0.37, cut for the highest 2% near 3.1. This is one part of the list.
test system: RBM10 RRM1-ZnF-RRM2 (GST-tagged construct); test: RNAcompete 7-mer binding Z-score; higher = stronger binding preference
Description: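 RNAcompete: 20 pmol GST-tagged RBM10 RNA-binding constructs were incubated with a designed RNA pool of about 241,000 sequences up to 41 nt (1.5 nmol) on glutathione beads for 30 min at 4 °C and washed. Bound RNAs were identified by microarray hybridisation. Each RNA 7-mer is scored by a one-sided Z-score of its enrichment, computed over probes that contain the 7-mer within longer pool sequences.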

Sequence | RNAcompete 7-mer binding Z-score
UGCGGUU | 0.447
CUCAUUA | -0.938
AUGGCAC | 0.468
AAAGCGG | 1.53
ACCGCCG | -0.639
UAAGGGU | 3.54
CUGCUUU | -0.945
UUGCAUA | -0.417
CAACUUU | -0.755
GUCCCGC | -0.497
CCGUGUG | -0.151
GGCAGGA | 2.85
UACAGCC | -0.646
CACCUUA | -0.825
GCCGCCA | -0.683
UGAUACU | -0.537
GUUGCAC | -0.136
AGGGCAA | 2.35
CGUAGUU | -0.373
UACAUUA | -0.537
AUACCUC | -0.854
GUAGCCG | -0.151
AUAGCUU | -0.632
UUGUCAU | -0.704

Sequence | RNAcompete 7-mer binding Z-score
GGGUACU | 2.05
CUGUUGU | -0.759
UGGUUCA | 0.326
GGAGUAC | 1.49
GGAAAAU | 1.15
CGCAGUA | -0.136
AUAACAC | -0.424
AAUUUCU | -0.69
UGCUACG | -0.5
UCUUCAC | -0.865
GCCGCGU | -0.57
GCACCUA | -0.577
ACUAAGU | -0.22
UGAUAAC | -0.42
GUACACC | -0.256
GUCAACU | -0.256
UCGAAUA | -0.286
UGGGUCU | 0.607
GCAAGCU | -0.544
CAAGGGG | 3.03
CUCCUCA | -0.77
AGCAGCG | 0.807
UUCUUAG | -0.65
ACCGCUU | -1.03

Sequence | RNAcompete 7-mer binding Z-score
GCGCUGA | -0.424
UUCCGGG | 0.341
UCAUCCU | -0.81
ACAGCGU | -0.0343
UGCUGAU | -0.471
GACCACU | -0.73
CUAUCAG | -0.602
CGCGAGG | 0.833
CCACCCU | -0.817
ACUUCCC | -0.927
AGAAGAU | 0.334
GAAUUCC | -0.668
ACCCGUA | -0.719
UGCUGAG | 0.148
GUUAGAC | 0.264
GAAAGGC | 2.13
GCACACC | -0.453
UGUGAAA | 0.0349
CAUUUGU | -0.803
CGCUGCA | -0.439
CUACUGU | -0.806
UACUGAA | -0.362
AGUAUAC | -0.118
CGUCAAA | -0.151

Sequence | RNAcompete 7-mer binding Z-score
ACAGACA | 0.075
CUGGAUG | 0.366
UUCUGGA | -0.278
GCUCUGC | -0.872
UAUAGCC | -0.442
AUGGAAC | 2.02
GAAAACC | -0.435
CUUUACA | -0.719
GAUAAGU | 0.0969
UGCCAGC | -0.511
CGCUGAC | -0.795
UGGACUA | 0.396
ACACAUC | -0.555
GCGGUCG | 0.909
ACCCGUC | -0.912
UAGCGCC | -0.723
UCUAUGC | -0.763
ACGUCAC | -0.592
CUGUCGA | -0.617
GGUUUGA | 0.548
ACGUUUG | -0.511
GCGAUCG | 0.308
UUCUGGC | -0.723
AAAGGUG | 3.5

Sequence | RNAcompete 7-mer binding Z-score
GCACCAC | -0.373
AUGCACA | -0.0379
GUAGCGC | 0.235
AGGGUGG | 3.88
GGAUGCA | 1.76
UGCGCGA | -0.384
UAAACAC | -0.369
UAUCCGU | -0.744
CAGUACU | -0.398
AAGCGGU | 1.03
CCGGAAA | 0.00216
UCUGAGA | -0.53
GCCCGAA | -0.646
UCGCCGG | -0.362
GACAAAU | -0.103
GCGCCGC | -0.307
UUCCAAA | -0.562
CCAAUCU | -0.821
UAAAGGG | 2.65
UAUAGGG | 2.76
GUUUGGU | 0.432
UUUUUUA | -0.581
AGUUAUA | -0.227
GAUCGCA | -0.26

Sequence | RNAcompete 7-mer binding Z-score
UUACACC | -0.664
UCUAAUC | -0.679
ACGGUAU | 0.847
CGUAGAU | -0.195
CCUUCGU | -0.803
GCGUGUC | -0.235
GACUUCA | -0.672
GGAAUGU | 1.58
UUCUUAC | -0.792
UAGAAAU | -0.337
GACAACU | -0.537
AUAAGGA | 2.16
UUGGGCA | 1.44
AGUGCGU | 0.425
UCCCGAA | -0.879
UGGCCCA | -0.417
AGCGUGU | 0.13
UUUCGAC | -0.701
CUGCCCC | -0.5
UCGCGUA | -0.468
GCUACGG | 0.607
GUAGGCC | 0.461
CCGUCUC | -0.77
ACGCCUA | -0.981

Sequence | RNAcompete 7-mer binding Z-score
GAUGCCU | -0.81
GAUCGAC | -0.471
UCUGGGU | 0.705
CUAAAAC | -0.606
AAGCGCG | 0.286
UGAGUAC | 0.177
GUGUAGA | 1.55
CAGAGUG | 1.09
GAGGACG | 1.69
UUGAUUA | -0.442
UGGAGUA | 1.66
UGUGGGA | 2.96
GUAGACC | -0.0925
UUGCAUU | -0.701
CAUGUUA | -0.49
UCGGGGG | 2.42
UGCUCGG | -0.424
CUGGGUC | 0.275
ACUCACU | -0.795
CGAGUAU | -0.391
CUGUGCC | -0.843
AUGUGCG | 0.417
GUAGUUU | -0.191
GAUCACU | -0.701

Sequence | RNAcompete 7-mer binding Z-score
UCCAGAC | -0.555
GACCAAA | -0.00148
CCAGCCA | -0.748
GGGGAGU | 2.86
CUAUUGA | -0.595
UGGUCAG | 0.694
ACUCGUC | -0.752
GUUUUGG | 0.716
AGCAAGU | -0.0343
CUCGUCA | -0.617
UUAAGUU | -0.42
GCUUACA | -0.632
ACAAUAC | -0.446
CCCUGCC | -0.846
UAAACUG | -0.209
GACUGUC | -0.85
AACUGGG | 1.77
GAACAUG | 0.461
GAACAUU | -0.384
AGGGGAG | 2.52
AGAUACA | -0.278
AAGGCCG | 0.534
ACGUGGA | 1.82
CAUCCGG | -0.158

Sequence | RNAcompete 7-mer binding Z-score
GUUAUAG | 0.159
AUUGGAC | 0.927
CAGCGUU | -0.435
GUUCCCA | -0.398
AGGGUUG | 3.34
GACGAUG | 0.68
GUACAAC | 0.33
AAAAAUU | -0.435
GGCAGGU | 1.66
ACCCGGU | -0.5
UGACCGG | 0.137
GCCUAAU | -0.697
CGUGAAG | 0.261
AGGGGAC | 1.97
UAUGAUU | -0.26
CCGUUAU | -0.683
AGCAUUC | -0.672
CAGCCCC | -0.475
UCCCUCG | -0.719
GGACUCC | 0.126
GUUCACG | -0.355
AGAUGGG | 2.71
CUCAGUU | -0.828
UGGGGUA | 3.36

Sequence | RNAcompete 7-mer binding Z-score
GGCUCCU | -0.679
GUAACUA | -0.118
AACGAUC | -0.46
CGCGAUU | -0.701
AUCGCUA | -0.763
AUCCCCU | -0.712
UCUGUGU | -0.599
CAAGACC | -0.723
CAUUAUA | -0.446
CACGGAU | 0.366
CCGACAC | -0.555
UCUCAGA | -0.559
UACAUCA | -0.347
AAGUUCC | -0.701
CAUUGGC | -0.388
UGCUGCC | -0.719
AACAUUC | -0.632
GACCUCA | -0.854

— the supplement of paper PMC5499739
